Assay results from US20110028697.

B1: MazF (E. coli), N-terminally His-Tagged MazF from Escherichia coli (protein)
chain: MVSRYVPDMGDLIWVDFDPTKGSEQAGHRPAVVLSPFMYNNKTGMCLCVPCTTQSKGYPFEVVLSGQERDGVALADQVKSIAWRARGATKKGTVAPEELQLIKAKINVLIG
B2: MazF (S. aureus), MazF from Staphylococcus aureus (protein)
chain: MIRRGDVYLADLSPVQGSEQGGVRPVVIIQNDTGNKYSPTVIVAAITGRINKAKIPTHVEIEKKKYKLDKDSVILLEQIRTLDKKRLKEKLTYLSDDKMKEVDNALMISLGLNAVAHQKN

Experiments:
[1] = molecular target: T1, MazE (E. coli), MazE from Escherichia coli with His-Tag and Myc-Tag at the N-terminal end
T1 chain: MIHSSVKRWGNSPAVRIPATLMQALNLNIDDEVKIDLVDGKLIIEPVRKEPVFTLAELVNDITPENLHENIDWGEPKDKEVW

[2] = molecular target: T2, MazE (S. aureus), chimeric protein with two molecules of Protein S from Myxococcus xanthus linked to, P02966
T2 chain: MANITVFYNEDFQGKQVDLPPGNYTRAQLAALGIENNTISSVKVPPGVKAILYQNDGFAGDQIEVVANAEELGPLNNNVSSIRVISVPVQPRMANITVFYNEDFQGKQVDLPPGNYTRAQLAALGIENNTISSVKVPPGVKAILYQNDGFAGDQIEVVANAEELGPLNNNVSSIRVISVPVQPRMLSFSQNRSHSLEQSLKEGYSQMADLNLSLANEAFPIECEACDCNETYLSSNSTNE

Protein	fluorescence signal (ribonuclease activity of MazF on Substrate 1) [1]	fluorescence signal (ribonuclease activity of MazF on Substrate 3) [2]
B1	no increase in fluorescence signal was observed, and the ribonuclease activity of MazF (E. coli) remained suppressed by MazE (E. coli)	–
B2	–	no increase in fluorescence signal was observed, and the ribonuclease activity of MazF (S. aureus) remained suppressed by MazE (S. aureus)
